Test results from the RNAGym collection of RNA variant scans (doi:10.1093/nar/gkz1192).
The source gives no read counts; variants with many changes may rest on few reads.

B1: CPEB3 Ribozyme (parent)
chain: UAACAGGGGGCCACAGCAGAAGCGUUCACGUCGCAGCCCCUGUCAGAUUCUGGUGAAUCUGCGAAUUCUGCUGUAUAUCUC

Variants of: B1
Assay: self-cleavage, relative activity (ratio to wild type); higher = more cleavage; in vitro, sequencing
Procedure, shortened: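 Libraries of CPEB3 self-cleaving ribozyme mutants came from rounds of error-prone PCR and carried barcodes, which DNA sequencing matched to variants. In vitro transcription used T7 RNA polymerase at 37°C for 5 hours, with a further 15 min in DNase I before EDTA stopped the reaction; the ribozymes cleaved during both steps. The RNA was reverse transcribed with template switching and sequenced on Illumina. Relative activity is the cleaved/total read fraction of a variant divided by that of the unmutated ribozyme, averaged over three batches with at least 5 reads.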

Variant | self-cleavage
UAACAGGGGGCCACAGCUGAAGCGUUCACGUCGCAGCCCCUGUCUGAUUCUGGUGAAUCUGCGAAUUCUACUGUAUACCUC | 0.11
UAACAGGGGGCCACAGCUGAAGCGUUCACGUCGCAGCCCCUGUCUGAUUCUGGCGAAUCUGCGAAUUCUGCUGUAUAUCUC | 0.39
UAACAGGGGGCCACAGCUGAAGCGUUCACGUCGCAGCCCCUGUCUGAUUCUGGUGAACCUGCGGAUUCUGCUGUAUAUCUC | 0.12
UAACAGGGGGCCACAGCUGAAGCGUUCACGUCGCAGCCCCUGUCUGAUUCUGGUGAAUCUGCGAAUUCCGCUGUAUAUCUC | 0.19
UAACAGGGGGCCACAGCUGAAGCGUUCACGUCGCAGCCCCUGUCAGCUUCUGGUGGAUCUGCGAAUUCUGCUGUAUAUCUC | 0.16
UAACAGGGGGCCACAGCUGAAGCGUUCACGUCGCAGCCCCUGUCAGGUUCUGGUGGAUCUGCGAAUUCUGCAGUAUAUCUC | 0.09
UAACAGGGGGCCACAGCUGAAGCGUUCACGUCGCAGCCCCUGUCAGGUUCUGGUGAAUCUGUGAAUUCUGCUGUGUAUCUC | 0.18
UAACAGGGGGCCACAGCUGAAGCGUUCACGUCGCAGCCCCUGUCAGGAUCUGGUGAAUCUGCGUAUUCUGCUGUAUAACUC | 0.15
UAACAGGGGGCCACAGCUGAAGCGUUCACGUCGCAGCCCCUGUCAGGUUCUGGUGAAUCUGCGAAUACUGCUGUAUAUCUC | 0.4
UAACAGGGGGCCACAGCUGAAGCGUUCACGUCGCAGCCCCUGUCAGGUUCUGGUGAAUCUGCGAAUUCAGCCGUAUAUCUC | 1.26
UAACAGGGGGCCACAGCUGAAGCGUUCACGUCGCAGCCCCUGUCAGGUUCUGGUGAAUCUGCGAAUUCUGCUGUAAAUCUC | 0.33
UAACAGGGGGCCACAGCUGAAGCGUUCACGUCGCAGCCCCUGUCAGUUUCUGGUGAAACUGCGAAUUCUGCGGUAUAUCUC | 0.09
UAACAGGGGGCCACAGCUGAAGCGUUCACGUCGCAGCCCCUGUCAGAUUCUGGUGGAUCUGCGAAUUCUGCUGUGAAUCUC | 0.2
UAACAGGGGGCCACAGCUGAAGCGUUCACGUCGCAGCCCCUGUCAGAUUCUGGUGGAUCCGCGAAUUCUGCUUUAUAUCUC | 0.12
UAACAGGGGGCCACAGCUGAAGCGUUCACGUCGCAGCCCCUGUCAGAUUCUGGUGGAUCUGCGAAUUCAGCUGUAUAUCCC | 1.14
UAACAGGGGGCCACAGCUGAAGCGUUCACGUCGCAGCCCCUGUCAGAUUCUGGUGUAUCUGCCAAUUCUGCUGUAAAUCUC | 0.15
UAACAGGGGGCCACAGCUGAAGCGUUCACGUCGCAGCCCCUGUCAGAUUCUGGUGUAUCUGCGAAUUCAGCUGUAUAUCUC | 1.09

Variant | self-cleavage
UAACAGGGGGCCACAGCUGAAGCGUUCACGUCGCAGCCCCUGUCAGAUUCUGGUGUAUCUGCGAAUUCUGCCGUAUAUCUC | 0.25
UAACAGGGGGCCACAGCUGAAGCGUUCACGUCGCAGCCCCUGUCAGAUUCUGGUGACUCUGCAAUUUCUGCUGUAUAUCUC | 0.12
UAACAGGGGGCCACAGCUGAAGCGUUCACGUCGCAGCCCCUGUCAGAUUCUGGUGAGUCUGCGAAUUCUGCUGUUUAUCUC | 0.14
UAACAGGGGGCCACAGCUGAAGCGUUCACGUCGCAGCCCCUGUCAGAUUCUGGUGAGUCCGCGAAUUCUGCUGUAUAUCUC | 0.19
UAACAGGGGGCCACAGCUGAAGCGUUCACGUCGCAGCCCCUGUCAGAUUCUGGUGAGUCUGCGAAUUCUGCCGUAUAUCUC | 0.19
UAACAGGGGGCCACAGCUGAAGCGUUCACGUCGCAGCCCCUGUCAGAUUCUGGUGAGUCUGCGAAUUCUGCUGUAUAUCCC | 0.4
UAACAGGGGGCCACAGCUGAAGCGUUCACGUCGCAGCCCCUGUCAGAUUCUGGUGAAUCUGCGGAUUCUACUGUAUAUCCC | 0.17
UAACAGGGGGCCACAGCUGAAGCGUUCACGUCGCAGCCCCUGUCAGAUUCUGGUGAAUCUGCGGACUCUGCUGCAUAACUC | 0.22
UAACAGGGGGCCACAGCUGAAGCGUUCACGUCGCAGCCCCUGUCAGAUUCUGGUGAAUCUGCGGAUACUGCUGUUUAUCUC | 0.1
UAACAGGGGGCCACAGCUGAAGCGUUCACGUCGCAGCCCCUGUCAGAUUCUGGUGAAUCUGCGGAUCCUGCUGUAUAUCUC | 0.19
UAACAGGGGGCCACAGCUGAAGCGUUCACGUCGCAGCCCCUGUCAGAUUCUGGUGAAUCUGCGGAUUCAGCUGUAUAUCUC | 0.99
UAACAGGGGGCCACAGCUGAAGCGUUCACGUCGCAGCCCCUGUCAGAUUCUGGUGAAUCUGCGGAUUCUGCUGUACAUCUC | 0.31
UAACAGGGGGCCACAGCUGAAGCGUUCACGUCGCAGCCCCUGUCAGAUUCUGGUGAAUCUGCGAGUCCUGCUGUAUAUCUC | 0.2
UAACAGGGGGCCACAGCUGAAGCGUUCACGUCGCAGCCCCUGUCAGAUUCUGGUGAAUCUGCGAGUUCUGCCGUAUAUCUC | 0.38
UAACAGGGGGCCACAGCUGAAGCGUUCACGUCGCAGCCCCUGUCAGAUUCUGGUGAAUCUGCGAAUUCUGCUGUGCAUCUC | 0.4
UAACAGGGGGCCACAGCUGAAGAGUUCACGUCGCAGCCCCUGUCAGAUUCUGGUGAAUCUGCGAAUUCAGCUGUAUAUCUC | 0.16
UAACAGGGGGCCACAGCUGAAGGGUUCACGUCGCAGCCCCUGUCAGAUUCUGGUGAAUCUGCGAAUUCUGCUGUAUUUCUC | 0.28
